Assay results: the antibiotic and cytotoxicity screens of Wong et al. (2023)
Some of the results follow.

Legend:
HSkMC = human skeletal muscle cells; assay: cytotoxicity call (relative viability < 0.9); details: 10 µM
HepG2 = assay: cytotoxicity call (relative viability < 0.9); details: 10 µM
S. aureus RN4220 = assay: growth inhibition call (relative growth <= 0.2); details: 50 µM

Row | Compound | cytotoxicity call (HSkMC) | cytotoxicity call (HepG2) | growth inhibition call (S. aureus RN4220)
1 | C[C@H](CO)N1C[C@H](C)[C@@H](CN(C)C(=O)Nc2cccc3ccccc23)Oc2c(NC(=O)Nc3ccccc3)cccc2C1=O | inactive | inactive | inactive
2 | COc1cccc(NC(=O)N(C)C[C@H]2Oc3cc(C#CC4(O)CCCC4)ccc3S(=O)(=O)N([C@H](C)CO)C[C@H]2C)c1 | inactive | active | inactive
3 | C[C@@H]1CN([C@@H](C)CO)C(=O)c2c(c3ccccc3n2C)-c2ccccc2CO[C@@H]1CN(C)Cc1ccc(C(=O)O)cc1 | inactive | inactive | inactive
4 | C[C@@H]1CCCCO[C@@H](CN(C)C(=O)c2ccncc2)[C@H](C)CN([C@@H](C)CO)C(=O)c2cc(NC(=O)NC3CCCCC3)ccc2O1 | inactive | inactive | inactive
5 | C[C@@H]1ON(c2cccc(C(=O)OC(C)(C)C)c2)[C@H](c2ccc(Br)cc2)[C@H]1C(=O)N1C(=O)OC[C@H]1Cc1ccccc1 | inactive | inactive | inactive
6 | CCN(CC)S(=O)(=O)[C@H]1CCS(=O)(=O)C1 | inactive | inactive | inactive
7 | C[C@H]1CN([C@@H](C)CO)C(=O)Cc2cc(NC(=O)Cn3cnnn3)ccc2O[C@@H]1CN(C)S(=O)(=O)c1cccs1 | inactive | inactive | inactive
8 | O=C(CN1CCCN(CC(=O)CN2C(=O)c3ccccc3C2=O)CC1)CN1C(=O)c2ccccc2C1=O | inactive | inactive | inactive
9 | COc1ccc(S(=O)(=O)Nc2cccc3c2O[C@H](CN(C)S(=O)(=O)c2ccc(C)cc2)[C@@H](C)CN([C@H](C)CO)C3=O)cc1 | inactive | inactive | inactive
10 | COCC#Cc1cnc2c(c1)C(=O)N([C@H](C)CO)C[C@@H](C)[C@@H](CN(C)C(=O)c1ccc3c(c1)OCO3)O2 | inactive | inactive | inactive
11 | C[C@@H]1CN([C@H](C)CO)C(=O)c2cc(NC(=O)Cc3ccccc3)ccc2O[C@@H](C)CCCCO[C@H]1CN(C)C(=O)Nc1ccc2c(c1)OCO2 | inactive | inactive | inactive
12 | Cn1c([C@H]2C=C(C(=O)N3CCOCCOCCOCCOCC3)O[C@@H](OCCCCO)C2)cc(=O)n1-c1ccccc1 | inactive | inactive | inactive
13 | O=C(C[C@H]1C[C@H]2c3cc(NC(=O)Nc4ccccc4F)ccc3O[C@H]2[C@H](CO)O1)NCc1ccc(Oc2ccccc2)cc1 | inactive | inactive | inactive
14 | CC(=O)N[C@@H]1[C@@H](O)[C@H](O)[C@H](CO)O[C@@H]1O | inactive | inactive | inactive
15 | C[C@@H]1CN([C@@H](C)CO)S(=O)(=O)c2ccc(-c3ccc(C(=O)N(C)C)cc3)cc2O[C@@H]1CN(C)C(=O)C1CC1 | inactive | inactive | inactive
16 | CC(C)Nc1ncnc(N)c1[N+](=O)[O-] | inactive | inactive | inactive
17 | O=C(N[C@@H]1C=C[C@@H](CC(=O)N2CCOCC2)O[C@@H]1CO)c1ccc2c(c1)OCO2 | inactive | inactive | inactive
18 | Cc1ccc(S(=O)(=O)Nc2ccc3c(c2)C(=O)N([C@H](C)CO)C[C@H](C)[C@@H](CN(C)C(=O)NC(C)C)O3)cc1 | inactive | inactive | inactive
19 | Cc1ccc(S(=O)(=O)N(C)C[C@@H]2Oc3ccc(NC(=O)NC(C)C)cc3C(=O)N([C@@H](C)CO)C[C@@H]2C)cc1 | inactive | inactive | inactive
20 | C[C@@H]1CN([C@@H](C)CO)C(=O)c2cc(NS(=O)(=O)c3ccccc3)ccc2O[C@@H](C)CCCCO[C@@H]1CN(C)S(=O)(=O)c1cn(C)cn1 | inactive | inactive | inactive
21 | C[C@@H]1CCCCO[C@H](CN(C)CC2CCCCC2)[C@H](C)CN([C@@H](C)CO)C(=O)c2cc(NC(=O)Nc3ccc(F)cc3)ccc2O1 | inactive | active | inactive
22 | C[C@H]1CCCCO[C@@H](CN(C)CC2CCCCC2)[C@@H](C)CN([C@@H](C)CO)C(=O)c2cc(NC(=O)Nc3ccc(F)cc3)ccc2O1 | inactive | active | inactive
23 | Cc1ccc(S(=O)(=O)Nc2ccc3c(c2)CC(=O)N([C@@H](C)CO)C[C@@H](C)[C@H](CN(C)Cc2ccc(C(F)(F)F)cc2)O3)cc1 | inactive | inactive | inactive
24 | C[C@H](CO)N1C[C@H](C)[C@@H](CN(C)Cc2ccc(C(=O)Nc3ccccc3N)cc2)Oc2ccc(NC(=O)Nc3ccc(F)cc3)cc2CC1=O | inactive | inactive | inactive
25 | C[C@@H]1CN([C@@H](C)CO)C(=O)c2cc(NC(=O)CCCCCC(=O)Nc3ccccc3N)ccc2O[C@@H](C)CCCCO[C@@H]1CN(C)S(=O)(=O)c1ccc(Cl)cc1 | inactive | inactive | inactive
26 | COc1cccc(C(=O)Nc2ccc3c(c2)C(=O)N(C)[C@H]2CC[C@H](CC(=O)NCCCN4CCOCC4)O[C@@H]2CO3)c1 | inactive | inactive | inactive
27 | CCC(=O)O.[NaH] | inactive | inactive | inactive

Row | Compound | cytotoxicity call (HSkMC) | cytotoxicity call (HepG2) | growth inhibition call (S. aureus RN4220)
28 | C=CCNC(=O)[C@@H]1[C@H]2C(=O)O[C@H](c3ccccc3)[C@H](c3ccccc3)N2[C@H](c2ccc(O)cc2)[C@@]12C(=O)N(C(=O)OCCOC)c1ccc(C#Cc3ccc(OC)cc3)cc12 | inactive | inactive | inactive
29 | Cc1noc(C)c1S(=O)(=O)Nc1ccc2c(c1)C(=O)N([C@H](C)CO)C[C@H](C)[C@H](CN(C)S(=O)(=O)c1c(C)noc1C)O2 | inactive | inactive | inactive
30 | COc1ccc(NC(=O)Nc2ccc3c(c2)CC(=O)N([C@@H](C)CO)C[C@H](C)[C@@H](CN(C)S(=O)(=O)c2cn(C)cn2)O3)cc1 | inactive | inactive | inactive
31 | CC(C)NC(=O)Nc1cccc2c1O[C@@H](CN(C)Cc1ccc(Oc3ccccc3)cc1)[C@@H](C)CN([C@H](C)CO)C2=O | inactive | inactive | inactive
32 | Cc1noc(C)c1S(=O)(=O)N(C)C[C@H]1Oc2ccc(NC(=O)Nc3ccc4c(c3)OCO4)cc2C(=O)N([C@H](C)CO)C[C@@H]1C | inactive | inactive | inactive
33 | C[C@H]1CN([C@@H](C)CO)S(=O)(=O)c2ccc(C#Cc3ccncc3)cc2O[C@@H]1CN(C)S(=O)(=O)c1ccccc1 | inactive | active | inactive
34 | O=C(C[C@@H]1C[C@@H]2c3cc(NC(=O)C4CCOCC4)ccc3O[C@@H]2[C@@H](CO)O1)NCc1ccc(Cl)cc1 | inactive | inactive | inactive
35 | C[C@@H]1CCCCO[C@H](CN(C)S(C)(=O)=O)[C@@H](C)CN([C@H](C)CO)C(=O)c2cc(NC(=O)Nc3ccc(C(F)(F)F)cc3)ccc2O1 | inactive | inactive | inactive
36 | COCC#Cc1ccc2c(c1)O[C@@H](CN(C)Cc1ccc3c(c1)OCO3)[C@@H](C)CN([C@@H](C)CO)S2(=O)=O | inactive | inactive | inactive
37 | O=C(C[C@H]1C=C[C@H](NC(=O)c2cccnc2)[C@@H](CO)O1)NCc1ccncn1 | inactive | inactive | inactive
38 | O=C(CN1CCOCC1)NCC[C@H]1CC[C@H](NC(=O)c2ccccc2F)[C@H](CO)O1 | inactive | inactive | inactive
39 | COc1ccc(S(=O)(=O)N(C)C[C@@H]2OCc3cn(nn3)CCCC(=O)N([C@@H](C)CO)C[C@H]2C)cc1 | inactive | inactive | inactive
40 | C[C@H](CO)N1C[C@H](C)[C@H](CN(C)Cc2ccc(C(=O)O)cc2)OCc2ccccc2-c2c(n(C)c3ccccc23)C1=O | inactive | inactive | active
41 | NCCN1CCC(c2cccs2)CC1 | inactive | inactive | inactive
42 | Cc1noc(C)c1NC(=O)Nc1ccc2c(c1)C(=O)N([C@H](C)CO)C[C@@H](C)[C@H](CN(C)Cc1ccc(C(=O)O)cc1)OCCCC[C@H](C)O2 | inactive | inactive | inactive
43 | COc1ccccc1CNC(=O)C[C@H]1C[C@H]2c3cc(NC(=O)Cc4ccncc4)ccc3O[C@H]2[C@@H](CO)O1 | inactive | inactive | inactive
44 | CCNC(=O)[C@@H]1[C@@H](CO)[C@@H]2Cn3c(ccc(C4=CCCC4)c3=O)[C@H]1N2S(=O)(=O)c1cn(C)cn1 | inactive | inactive | inactive
45 | COc1cccc(S(=O)(=O)N(C)C[C@@H]2Oc3ncc(C#CCN(C)C)cc3C(=O)N([C@@H](C)CO)C[C@H]2C)c1 | inactive | inactive | inactive
46 | CCC1OC(=O)C(C)C(OC2CC(C)(OC)C(O)C(C)O2)C(C)C(OC2OC(C)CC(N(C)C)C2O)C(C)(O)CC(C)C(=NOCOCCOC)C(C)C(O)C1(C)O (configuration not stated) | inactive | inactive | active
47 | C[C@@H]1CCCCO[C@@H](CN(C)Cc2ccccc2)[C@H](C)CN([C@@H](C)CO)C(=O)c2cc(NS(=O)(=O)c3ccc(F)cc3)ccc2O1 | inactive | inactive | inactive
48 | C[C@@H]1CN([C@@H](C)CO)C(=O)c2cc(C#C[C@@H](C)O)cnc2O[C@@H]1CN(C)Cc1cncnc1 | inactive | inactive | inactive
49 | C[C@@H]1CN([C@@H](C)CO)C(=O)c2cccc(NC(=O)C3CC3)c2O[C@@H]1CN(C)Cc1ccc(Oc2ccccc2)cc1 | inactive | inactive | inactive
50 | C[C@@H]1CNC(=O)CO1 | inactive | inactive | inactive
51 | C[C@@H]1CN([C@@H](C)CO)C(=O)c2cc(NC(=O)c3ccncc3)ccc2O[C@H]1CN(C)C(=O)Nc1ccc2c(c1)OCO2 | inactive | inactive | inactive
52 | CO[C@H](CN(C)S(=O)(=O)c1cccc(Cl)c1)[C@H](C)CN([C@@H](C)CO)S(=O)(=O)c1ccc(Cl)cc1 | inactive | inactive | inactive
53 | C[C@@H]1CN([C@@H](C)CO)C(=O)c2c(c3ccccc3n2C)-c2ccccc2CO[C@@H]1CN(C)Cc1ccc(F)cc1 | inactive | inactive | inactive
54 | Cn1nc(CNc2ncccn2)c2c1CNCC2 | inactive | inactive | inactive
